Laboratory results published in PubChem BioAssay AID1508624 (National Center for Advancing Translational Sciences (NCATS), 2021).
Out of some 48,000 compounds screened, about 120 (0.25%) were called active. Inconclusive results (about 4%) are left out. Calls follow the shape of the dose curve; as a rule, active = well fitted activation curve with a large enough effect; inconclusive = small, poorly fitted or top-dose-only effect, or another doubt; inactive = no such curve, though single readings can be large or run the other way. This is one part of the list.

Experiment: Primary qHTS for Identification of Small Molecule Activators of Huntingtin-Antisense Promoter Activity; also: nearly all actives have a fitted effect of over 55% in size
Details: HEK293 HTT-AS promoter firefly luciferase reporter, 24 h; series mostly up to 57.5 µM; activity change, positive = activation: at the top concentration
How it was run: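 Quantitative HTS used concentration series of up to 57.5 uM final on HEK293 luciferase reporter cells, 24 h at 37 degrees C. Readout was Dual-Glo firefly luminescence.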

Row | SMILES | activity change, positive = activation
1 | COCCNC(=O)c1ccc2c(c1)N(Cc1ccc(C(F)(F)F)cc1)C(=O)c1ccccc1S2 | inactive: -43.1%
2 | COc1ccc(-c2cn(-c3ccc(C)cc3)c(S(=O)(=O)CC(=O)Nc3ccccc3)n2)cc1 | inactive: 10.8%
3 | CCOc1ccccc1CNC(=O)CCCN1C(=O)COc2ccc(C)cc21 | inactive: -13.8%
4 | Cc1cc(Br)ccc1NC(=O)c1coc(=O)c2ccccc12 | inactive: -30%
5 | CC(C)c1ccccc1NC(=O)CSc1nnc(COc2ccccc2)o1 | inactive: 17.1% [at 11.5 µM, percent change from vehicle, -100% = no light]
6 | Cc1ccc(CNC(=O)CN(C)S(=O)(=O)c2ccc(Br)s2)cc1 | inactive: -2.05%
7 | Cc1oc2ncn(CC(C)C)c(=O)c2c1C(=O)Nc1cccc(C(F)(F)F)c1 | inactive: 7.2%
8 | O=C(Nc1ccc(Cl)c(Cl)c1)c1cc(S(=O)(=O)N2CCN(c3cccc(Cl)c3)CC2)ccc1F | inactive: -17.4%
9 | Cc1nn(CCC(=O)NCc2cccc(Br)c2)c(=O)c2nn(-c3ccccc3)c(C)c12 | inactive: -0.568%
10 | O=C(c1ccc(CS(=O)c2ccccc2Cl)o1)N1CCN(c2cccc(C(F)(F)F)c2)CC1 (stereo unspecified) | inactive: -60.6%
11 | CC(C)OCCCn1c(SCC(N)=O)nc2c(sc3ccccc32)c1=O | inactive: -11.1%
12 | O=C(NCCCCc1ccccc1)c1nn(-c2ccccc2F)nc1CO | inactive: -20.5%
13 | CCn1c(=O)c2sccc2n2c(CCC(=O)N3CCN(c4ccccc4OC)CC3)nnc12 | inactive: -16.5%
14 | COc1ccc(-c2nnc(SCC(=O)Nc3ccccc3C)o2)cc1OC | inactive: -4.55%
15 | CCCOc1ccc(C(=O)NCC(c2ccc(OC)cc2)N2CCCCC2)cc1 (stereo unspecified) | inactive: 15.2%
16 | CC(C)NC(=O)Cn1ccc2cc(S(=O)(=O)N3CCCCCC3)ccc21 | inactive: -26.2%
17 | CC(C)CNC(=O)c1c(-c2ccccc2)c(-c2ccccc2)nn(C)c1=O | inactive: -20%
18 | COc1ccc2c(c1)CC(NC(=O)Nc1ccc(NC(C)=O)cc1)CO2 (stereo unspecified) | inactive: -8.13%
19 | COc1ccccc1CNC(=O)C1CCN(Cc2cc3ccccc3n2Cc2cccc(C)c2)CC1 | inactive: -22.5%
20 | Cc1ccccc1Cn1c(=O)n(CCCCC(=O)NCc2ccccc2Cl)c(=O)c2ccccc21 | inactive: -16.1%
21 | O=C(NCc1ccccc1Cl)c1ccc(NC(=O)c2nsc3ccccc23)cc1 | inactive: -35.8%
22 | O=C(CSc1nnc(-c2ccncc2)n1-c1ccccc1)Nc1ccc(Br)cc1 | inactive: 2.72%
23 | CCOc1cc(C)c(C(C)C)cc1S(=O)(=O)n1ccnc1CC | inactive: -35.4%

Row | SMILES | activity change, positive = activation
24 | CCOc1ccc(NC(=O)C2CCN(S(=O)(=O)c3ccc4c(c3)oc(=O)n4C)CC2)cc1 | inactive: -9.36%
25 | COc1ccc2c(Oc3ccc(NC(=O)c4c(C)n(CC(C)(C)O)n(-c5ccccc5)c4=O)cc3F)ccnc2c1 | inactive: -39%
26 | CCOc1ccc2nc(N3CCC(C(=O)Nc4ccc(Br)cc4F)CC3)sc2c1 | inactive: 6.93%
27 | Cc1ccccc1OCC(=O)Nc1c(C)ccc2nsnc12 | inactive: -0.0324%
28 | CC(C)c1ccc(S(=O)(=O)c2nnn3c2nc(N2CCOCC2)c2sccc23)cc1 | inactive: -9.14%
29 | CC1CCN(S(=O)(=O)c2ccc3c(ccn3CC(=O)NCc3ccc(N(C)C)cc3)c2)CC1 | inactive: -32%
30 | COc1ccc(Cl)cc1NC(=O)Cn1nc(C(F)(F)F)c2c1CCC2 | inactive: -9.47%
31 | COc1ccc(CCC(=O)NCc2nc3cccnc3n2Cc2cccc(OC)c2)cc1 | inactive: -14%
32 | Cc1c(C(=O)Nc2ccccc2Br)oc2ccc(S(=O)(=O)N3CCOCC3)cc12 | inactive: -9.92%
33 | CCC1CN(C(=O)N2CCC(C(=O)N3CCN(c4ccc(F)cc4)CC3)CC2)c2ccccc2O1 (stereo unspecified) | inactive: -44.1%
34 | COc1nc(N)nc2c1ncn2[C@@H]1O[C@H](CO)[C@@H](O)[C@@H]1O | inactive
35 | CCCCc1nn2c(=O)cc(COC(=O)C(C)Oc3ccccc3)nc2s1 (stereo unspecified) | inactive: 6.17%
36 | Cc1ccc(NC(=O)C2CCN(C(=O)c3cnn(-c4ccccc4)c3-n3cccc3)CC2)cc1 | inactive: -35.8%
37 | CCOC(=O)N1CCc2c(sc3c2c(=O)n(-c2ccc(CC)cc2)c(=O)n3CC(=O)c2ccccc2)C1 | inactive: -24.2%
38 | COc1ccc(NS(=O)(=O)c2ccc3c(c2)CCCN3C(=O)C2CCC2)cc1OC | inactive: -29.3%
39 | O=C(NCCCN1CCN(c2ccccc2F)CC1)C1COc2ccccc2C1 (stereo unspecified) | inactive: -10.9%
40 | Cc1ccc(C(=O)NCC(=O)OCc2cc(=O)n3nc(C4CC4)sc3n2)cc1 | inactive: -6.17%
41 | COc1ccc(S(=O)(=O)Cc2ccc(C(=O)N3CCN(c4cc(C)ccc4C)CC3)o2)cc1 | inactive: -14%
42 | O=C(O)c1cccnc1SCc1cccc(Cl)c1 | inactive: 0%
43 | O=C(Nc1cccc(-c2nc3ccccc3[nH]2)c1)c1c(F)cccc1F | inactive: 1.09%
44 | CCCNC(=O)c1c(NC(=O)c2ccc(C)cc2)sc2c1CCCCC2 | inactive: 0.533%
45 | CC(=O)N1CCOc2cc(S(=O)(=O)Nc3cc(C(F)(F)F)ccc3Cl)c(C)cc21 | inactive: -12.8%
46 | CCSc1ncc(Cl)c(C(=O)N(Cc2ccc(C(C)(C)C)cc2)C2CCS(=O)(=O)C2)n1 (stereo unspecified) | inactive: -34.3%
